# Data taken from publication PMC12136788.
# Some of the results follow.
# T1: UNK ZnF1-3 (human, UniProt Q9C0B0 31-174)
# T1 sequence: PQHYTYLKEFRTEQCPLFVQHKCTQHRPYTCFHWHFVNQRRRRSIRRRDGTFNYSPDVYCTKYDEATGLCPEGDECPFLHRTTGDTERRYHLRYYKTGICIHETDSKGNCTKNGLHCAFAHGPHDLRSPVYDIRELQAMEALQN
# B1: chrX:71549762:71549763:+_ENSMUSG00000019087_ENSMUST00000019231|mus_mus|mus_mus_mus_hu_False|78_98 (ssRNA)
# RNA: GGGAGUUCUACAGUCCGACGAUCAAACCCGUGUACUCACUCUUAACAGCACAACAUUCCCCCCCAACGAUAACGACAGCCAAGCAGGACAGACAGUUAAGUAGUACUUCCACACUCCCAAACUCAGGGAGCCCUAUAACCUUACAACAGAGGAUUGAGCAUCA
# B2: chr3:10015032:10015033:+_ENSMUSG00000027533_ENSMUST00000029046|mus_mus|mus_mus_mus_hu_True|8_38 (ssRNA)
# RNA: GGGAGUUCUACAGUCCGACGAUCGUUUUUACCAUCACAAGUGAUGAUACAAUCUGGCUUGGCCAUUGCGCCCAUUUUUCGCAAAGCUAUUCCCACUCCUAGCUCUUUCAUGUAUUCAUCAAAGCCUUGGCUUUCCACCAGGCGCAACAGAGGAUUGAGCAUCA
# B3: chr5:145543945:145543946:-_ENSG00000133706_ENST00000545646|hu_hu|hu_hu_hu_mus_True|48_108 (ssRNA)
# RNA: GGGAGUUCUACAGUCCGACGAUCCUGAAUAGCCAGUGGUGGGAAAUAAUCAAGCCAGUGCUCUGCUUCAGAAAACUUCACUAUGUCUUCAUCAGACAGCCCAAGGGAUUUCAUAAUGUCCCACUGGUACUUAGAAGAUCCUGCCAACAGAGGAUUGAGCAUCA
# B4: chr14:66974463:66974464:+_ENSMUSG00000022044_ENSMUST00000074523|mus_hu|mus_mus_mus_hu_False|1_38 (ssRNA)
# RNA: GGGAGUUCUACAGUCCGACGAUCUUGUAGGACGACUUAUUCAGGGGAUCGGCCAGGAAGCAGGAGCAGAACAAGGACACCAGCGGGAGCUCCUUCAUCUUCUCCUUGUAGGCAGCAAGGGUCAUGUUUCUGGGAUCCUGGUGGCAACAGAGGAUUGAGCAUCA
# B5: chr9:79619141:79619142:-_ENSMUSG00000032328_ENSMUST00000034878|mus_hu|FALSE|FALSE (ssRNA)
# RNA: GGGAGUUCUACAGUCCGACGAUCAAAUUAAAUGGUAAUGUCAGCUGUAUUACUACUGUUUCUAUAUUUAUGAUUAAUUACUAGCAGUACAACUCCCAGAAGGAAGGAGAUGGAUCCAACAGCGAUGUAAGCAAUCCCCAAAAACAACAGAGGAUUGAGCAUCA
# B6: chr1:93819538:93819539:+_ENSG00000117505_ENST00000370267|hu_hu|FALSE|FALSE (ssRNA)
# RNA: GGGAGUUCUACAGUCCGACGAUCUUCUUCAGGAAUGCCAAGGUUUUCCAAACGAGAACUGGCCUUUCUUCUUUUUAAUGCUACUGUUUUACACUCUUGCAAGACUUCUUUUACUUCACUGAUGUAAGAGCCAAAUCCCAAACUCAACAGAGGAUUGAGCAUCA
# B7: chr18:77733610:77733611:-_ENSG00000141759_ENST00000592957|hu_hu|FALSE|FALSE (ssRNA)
# RNA: GGGAGUUCUACAGUCCGACGAUCUGUUAUCAAUUCCAUCUCAGAGGUGCUCCAGCCCUGGAGCUUCCUGUAUUUUCCAAAGGCUUUAAAUAGCUUAAAACGUUUCCAUACAAAAAGGGCUCCACGACAUUUAUCCGCGCAGACCAACAGAGGAUUGAGCAUCA
# B8: chr1:46159212:46159213:+_ENSG00000159596_ENST00000372025|hu_mus|hu_hu_hu_mus_True|8_108 (ssRNA)
# RNA: GGGAGUUCUACAGUCCGACGAUCUCUGAUCCCACCCAAGAAAGCUAGGAAACCGGCUCCAUAAGCCAUCUGAGUGAAAGCUAGGACGGGGAUAUAAGACUUUGUUAUUACCAUGAGAAGUGGGGGAGCAACGAAGGGGAUUAACAACAGAGGAUUGAGCAUCA
# B9: chr6:86246577:86246578:-_ENSG00000135317_ENST00000369627|hu_mus|motif|central (ssRNA)
# RNA: GGGAGUUCUACAGUCCGACGAUCUAAUUAGGCAGCACAGCUCCCUCCAUUGUCGUACUCUUGAAUACGCCUUUAAUUUUGCGGCCGGUUCUGCUGAUUCCAAACGAUUCUCCUCUUUUUUGUGUGCUUCUAAAUAUUAAACAACAACAGAGGAUUGAGCAUCA
# B10: chr11:18503389:18503390:-_ENSG00000074319_ENST00000251968|hu_hu|hu_hu_hu_mus_True|18_38 (ssRNA)
# RNA: GGGAGUUCUACAGUCCGACGAUCAUUUUCCAUUUUCUCCAGAGCAGAACUUAGUUCUUCAUCCUUCUUUUUCAAAAGUUCUAUGUUUUUAUCAACUUCGGCUACUUCUUGAUCUAAACGGGUAACCAUCUCUUCCAGUUUCUGCAACAGAGGAUUGAGCAUCA
# B11: chr3:154749246:154749247:-_ENSMUSG00000053870_ENSMUST00000066568|mus_mus|motif|central (ssRNA)
# RNA: GGGAGUUCUACAGUCCGACGAUCGUUUUGUUACGUGUUGUCUCACUAUGAGAAGUUGAGCAAUACAAUCCUCCAUAUCACCGGGAAUUUUAUUGGUCCAAAUUUCAAAAGAAGAUAGAAAAGCUUUAAAGAUAUGUUAUGUUUCAACAGAGGAUUGAGCAUCA
# B12: chr4:148551591:148551592:-_ENSMUSG00000063077_ENSMUST00000060537|mus_hu|mus_mus_mus_hu_False|48_58 (ssRNA)
# RNA: GGGAGUUCUACAGUCCGACGAUCACCUGACAAAAUUAAAUAUCCCUGUAAAUUAGACAAUAAGCAGCAGGCAACAAAGUCUAUGCUUUGAAAUAUGUGCCAGGAAAAGUCAUCUUGUUUUUAGAUCUCAAGAGACAGUUCACACAACAGAGGAUUGAGCAUCA
# B13: chr7:89982137:89982138:+_ENSG00000105793_ENST00000417207|hu_mus|FALSE|FALSE (ssRNA)
# RNA: GGGAGUUCUACAGUCCGACGAUCGGGUAACCCAUUCCACCGCUUCCUCCCUUGGUGAAGAUUCUCAGGUUAUCAAUGAAAUUUCCAUACUUUCUCAACAAAGCGCAACCGCAGCGCACCAUGAGCUCCAAGGGGCAGGACUCCCAACAGAGGAUUGAGCAUCA
# B14: chr16:20502619:20502620:+_ENSMUSG00000003235_ENSMUST00000003320|mus_mus|motif|central (ssRNA)
# RNA: GGGAGUUCUACAGUCCGACGAUCGUCAGCACAAACAGCUGAGUACAUGUGUAGGUUGGAGACCCGGGCACCAUAUUCCCGGGUUGUCACAUGCAAGUGAAUCUGGUUUCCUAGGACCUCCUCAUUCAUUAAUAUGCCUCGUACCAACAGAGGAUUGAGCAUCA
# Target: T1, UNK ZnF1-3
# Assay: nsRBNS (natural sequence RNA bind-n-seq); RBNS binding buffer (assumed for nsRBNS): 25 mM Tris pH 7.5, 150 mM KCl, 3 mM MgCl2, 0.01% Triton X-100, 500 ug/ml BSA, 20 U/ml SUPERase-In, 4 C; UNK is unkempt and MSI1 is Musashi-1; names of the RNAs are library labels; protein concentration not given here; high values mean tight binding
row,Binder,binding signal
1,B1,1.52 enrichment R
2,B2,0.648 enrichment R
3,B3,1.04 enrichment R
4,B4,1.61 enrichment R
5,B5,1.4 enrichment R
6,B6,0.484 enrichment R
7,B7,0.969 enrichment R
8,B8,1.44 enrichment R
9,B9,0.782 enrichment R
10,B10,0.437 enrichment R
11,B11,2.78 enrichment R
12,B12,1.09 enrichment R
13,B13,1.29 enrichment R
14,B14,1.2 enrichment R
